# Screen size: about 360,000 compounds; about 25,000 (6.9%) were called active. Inconclusive means that the source gave no clear call. Such entries were picked first, then a sample of the others. Calls come from the whole dose curve; as a rule, active = well fitted inhibition curve with a large enough effect; inconclusive = small, poorly fitted or top-dose-only effect; inactive = flat fitted curve, though single readings scatter. Where the call is inconclusive, the potency comes from a doubtful curve fit.
# Target: Luciferin 4-monooxygenase (Photinus pyralis) (UniProt P08659)
# Chain of UniProt P08659 (P08659 whole entry, looked up): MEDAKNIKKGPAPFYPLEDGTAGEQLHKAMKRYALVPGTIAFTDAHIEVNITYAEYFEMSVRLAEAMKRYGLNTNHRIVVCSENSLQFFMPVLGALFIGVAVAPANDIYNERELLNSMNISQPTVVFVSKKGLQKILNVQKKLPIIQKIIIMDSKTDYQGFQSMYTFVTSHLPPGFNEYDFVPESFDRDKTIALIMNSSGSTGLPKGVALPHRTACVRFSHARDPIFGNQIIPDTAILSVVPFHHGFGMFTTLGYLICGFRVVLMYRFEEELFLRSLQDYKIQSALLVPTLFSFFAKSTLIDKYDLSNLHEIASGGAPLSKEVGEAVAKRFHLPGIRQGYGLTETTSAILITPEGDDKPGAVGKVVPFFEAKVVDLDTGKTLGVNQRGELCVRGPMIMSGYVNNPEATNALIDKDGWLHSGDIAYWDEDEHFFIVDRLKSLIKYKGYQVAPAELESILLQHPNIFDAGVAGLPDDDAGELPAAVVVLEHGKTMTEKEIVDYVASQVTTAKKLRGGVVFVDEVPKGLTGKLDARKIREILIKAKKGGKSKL
# Test: qHTS profiling assay for firefly luciferase inhibitor/activator using purifed enzyme and Km concentrations of substrates (counterscreen for miR-21 project); note: nearly all actives have a fitted effect of over 55% in size
# Conditions: purified FLuc, luminescence inhibition; series mostly up to 57.5 µM
# Summary of the method: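 Purified P. pyralis luciferase, 10 nM final, with Km-level 10 uM D-luciferin and 10 uM ATP in 50 mM Tris acetate pH 7.5, 10 mM Mg acetate, 0.01% Tween-20, 0.05% BSA; 6-point qHTS titration about 60 µM downward; luminescence read.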
# Potency is the fitted concentration of half-maximal effect; tags give direction and shape of the fitted curve.
row,Structure (SMILES),Potency
1,Fc1ccc(NC(=S)N2N=CCC2c2ccccc2)cc1 (stereo unspecified),"inconclusive: 26.9 µM [inhibitor, partial curve]"
2,COC(=O)c1ccc2nc(NC(=O)C3CC3)sc2c1,active: 19 µM
3,Cc1ccc(NC(=O)Cc2csc(-c3ccccc3)n2)cc1F,"inconclusive: 26.9 µM [inhibitor, partial curve, poor fit]"
4,Cc1cc(=O)[nH]c(SCC(=O)NCC2CCCCC2)c1C#N,"inconclusive: 37.9 µM [inhibitor, partial curve, poor fit]"
5,COc1ccc(/C=C2/SC(=O)N(CCC(=O)Nc3ccc(S(=O)(=O)Nc4nccs4)cc3)C2=O)cc1,"inconclusive: 2.39 µM [inhibitor, full curve]"
6,Cc1cnc(NC(=O)Nc2ccc(Cl)cc2)s1,active: 4.78 µM
7,COc1cccc(CNC(=O)c2ccc(NC(=O)C3=CSCCO3)cc2)c1,"inconclusive: 26.9 µM [inhibitor, single point]"
8,O=c1[nH][nH]c(C(F)(F)F)c1C=Nc1ccccc1Cl,"inconclusive: 33.8 µM [inhibitor, single point]"
9,CC1CCN(C(=O)C2CCCN(S(=O)(=O)c3cccc4nsnc34)C2)CC1 (stereo unspecified),inactive
10,Cn1cc(Cl)c(C(=O)NC(=S)Nc2sc3c(c2C#N)CCCCC3)n1,"inconclusive: 10.7 µM [inhibitor, partial curve]"
11,Cc1ccc2c(CC(=O)Nc3nc(C)cs3)coc2c1,"inconclusive: 23.9 µM [inhibitor, partial curve]"
12,CCOc1ccc2c(c1)-c1c(ssc1=S)C(C)(C)N2,"inconclusive: 19 µM [inhibitor, partial curve, poor fit]"
13,CN(CC(=O)Nc1ccc2c(c1)OCCO2)S(=O)(=O)c1ccc(Br)s1,"inconclusive: 37.9 µM [inhibitor, partial curve, poor fit]"
14,O=[N+]([O-])c1ccc2cn(-c3ccccc3)nc2c1,active: 9.53 µM
15,CCNC(=O)c1c(O)c2cccc3c2n(c1=O)CC3,"inconclusive: 26.9 µM [inhibitor, single point]"
16,Cc1cc(C)cc(NC(=O)Nc2cc(S(=O)(=O)N(C)C)ccc2C)c1,"inconclusive: 21.3 µM [inhibitor, single point]"
17,O=C(/C=C/c1ccc(Cl)c(Cl)c1)N1CCc2ccccc21,"inconclusive: 1.51 µM [inhibitor, full curve]"
18,COc1ccc(CCNC(=O)c2ccc3c(c2)nc(C)n3-c2ccc(Br)cc2)cc1OC,inactive
19,Cc1cc(C)n2nc(-c3ccc(Cl)cc3)cc2n1,active: 3.79 µM
20,COc1ccc(/C=N/NC(=O)c2cc(C3CC3)[nH]n2)cc1OC,"inconclusive: 23.9 µM [inhibitor, single point]"
21,COc1ccc(-c2cc3ccccc3s2)cc1[C@H]1[C@H]2C=CC[C@@H](C)[C@@H]2C(=O)N1Cc1ccccc1,active: 1.35 µM
22,NC(=O)c1cc(Cc2ccccc2)sc1NC(=O)c1ccco1,active: 9.53 µM
23,O=C(Nc1nc2cc3c(cc2s1)OCCO3)c1ccncc1,active: 1.69 µM

row,Structure (SMILES),Potency
1,Cc1ccc(NC2=C(NCCO)C(=O)c3ccccc3C2=O)cc1,"inconclusive: 37.9 µM [inhibitor, single point]"
2,O=C(O)c1ccc(NC(=O)c2ccc(Cl)c(S(=O)(=O)N3CCCCCC3)c2)cc1,"inconclusive: 26.9 µM [inhibitor, single point]"
3,COCCNC(=O)CSCc1nc(-c2ccc(SC)cc2)oc1C,"inconclusive: 23.9 µM [inhibitor, single point]"
4,COc1ccc(-c2nc(/C=C3\C(C)=Nc4ccccc43)c(O)o2)cc1,"inconclusive: 23.9 µM [inhibitor, partial curve]"
5,Cc1cccc(NC(=O)Nc2ccccn2)c1C,active: 9.53 µM
6,CN(C)C(=O)c1nnc(Cc2ccc(Cl)cc2)o1,"inconclusive: 37.9 µM [inhibitor, partial curve, poor fit]"
7,CCn1c(C)nc2cc(C(=O)NNC(=S)Nc3ccc(Cl)cc3Cl)ccc21,"inconclusive: 26.9 µM [inhibitor, partial curve, poor fit]"
8,CC(=O)NS(=O)(=O)c1ccc(NC(=O)/C=C/c2cn(-c3ccccc3)nc2-c2ccccc2)cc1,active: 9.53 µM
9,COC(=O)C(NC=O)C(O)(Cc1ccccc1)C(F)(F)F (stereo unspecified),"inconclusive: 26.9 µM [inhibitor, single point]"
10,Cc1ccccc1C(=O)Nc1cccc(NC(=O)c2ccc(C(C)(C)C)cc2)c1,active: 0.757 µM
11,CCc1ccc(Nc2c([N+](=O)[O-])c(=O)oc3ccccc23)cc1,inactive
12,O=C1c2ccccc2CN1CCSC(=S)N1CCOCC1,active: 12 µM
13,COc1ccc(C2CC(c3ccc(F)cc3)=NN2c2ccccc2)cc1OC (stereo unspecified),"inconclusive: 26.9 µM [inhibitor, partial curve, poor fit]"
14,COc1ccc(Nc2nc3ccccc3nc2NS(=O)(=O)c2ccc(NC(C)=O)cc2)cc1,active: 15.1 µM
15,CCOc1ccc(C(=O)COC(C)=O)cc1,"inconclusive: 19 µM [inhibitor, partial curve, poor fit]"
16,C#CCN1C(=O)S/C(=C/c2cc(C)n(CC)c2C)C1=O,active: 2.13 µM
17,Cc1nn(C(C)C(=O)NCCc2ccccc2)c(=O)c2c1sc1ccccc12 (stereo unspecified),"inconclusive: 4.78 µM [inhibitor, partial curve, poor fit]"
18,O=C(COC(=O)C1(c2ccc(F)cc2)CCCC1)N1CCNC1=O,inactive
19,COc1ccc(-c2c(C)c3ccc(O)cc3oc2=O)cc1,active: 15.1 µM
20,O=C1NC(=O)/C(=C/c2ccccc2Cl)N1,"inconclusive: 26.9 µM [inhibitor, partial curve, poor fit]"
21,CNC(=O)COc1ccccc1C(=O)Nc1ccc2c(c1)oc1ccccc12,active: 3.79 µM
22,COc1c2c(cc3oc(=O)ccc13)OC(C)(C)C=C2,"inconclusive: 16.9 µM [inhibitor, partial curve]"
23,Cc1ccc2cc(CN(CC3CCCO3)C(=O)Nc3ccccc3F)c3nnnn3c2c1 (stereo unspecified),"inconclusive: 26.9 µM [inhibitor, partial curve, poor fit]"

# — PubChem BioAssay AID588342 (National Center for Advancing Translational Sciences (NCATS), 2011)
